The list shows a part of the results. Single values are uncertain, as repeats are few or missing.

Test systems include WM115; WM1716; WM1745; WM3526; WM3619; WM451Lu.
What all share (assay): cell count relative to DMSO control; melanoma cells; higher = more viable cells
Settings in all cases: library dose: low library concentration; 72 h
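Also: cell number obtained by counting DAPI-stained nuclei in high-throughput microscope images with image analysis software, screen run in 1,536-well plates.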

In the case of `Cc1ccc(Nc2nccc(N(C)c3ccc4c(C)n(C)nc4c3)n2)cc1S(N)(=O)=O` [Pazopanib] + O=C(Nc1ccccc1)c1cc([N+](=O)[O-])ccc1Cl [GW9662] (first compound 0.4 µM, partner dose 2 µM), the cell count is 96.6% with WM115; 91.9% in the assay with WM1716; 114% in the assay on WM1745; 89.9% in the assay with WM3526; 84.4% in the assay with WM3619; 102% in the assay with WM451Lu.
As for `Cc1ccc(Nc2nccc(N(C)c3ccc4c(C)n(C)nc4c3)n2)cc1S(N)(=O)=O` [Pazopanib] + Cn1nnc2c(C(N)=O)ncn2c1=O [temozolomide] (first compound 0.4 µM, partner dose 2 µM), the cell count came to 96.9% with WM115; 89.7% in the assay with WM1716; 90.5% with WM1745; 95.9% with WM3526; 84.5% in the assay on WM3619; 88.8% in the assay on WM451Lu.
As to `Cc1ccc(Nc2nccc(N(C)c3ccc4c(C)n(C)nc4c3)n2)cc1S(N)(=O)=O` [Pazopanib] + COc1cc(N2CCC(N3CCN(C)CC3)CC2)ccc1Nc1ncc(Cl)c(Nc2ccccc2S(=O)(=O)C(C)C)n1 [NVP-TAE684] (first compound 0.4 µM, partner dose 0.08 µM), the cell count with WM115 turned out to be 83.2%; in the assay on WM1716, 79.9%; in the assay with WM1745, 74.5%; in the assay on WM3526, 72.9%; in the assay on WM3619 it was 68.7%; in the assay with WM451Lu, 89.3%.
On to `CC1(C)CCC(c2ccc(Cl)cc2)=C(CN2CCN(c3ccc(C(=O)NS(=O)(=O)c4ccc(N[C@H](CCN5CCOCC5)CSc5ccccc5)c(S(=O)(=O)C(F)(F)F)c4)cc3)CC2)C1` + NC1(c2ccc(-c3nc4ccn5c(=O)[nH]nc5c4cc3-c3ccccc3)cc2)CCC1 [MK2206] (first compound 0.4 µM, partner dose 0.4 µM), for which the cell count in the assay on WM115 worked out at 53.8%; with WM1716 it was 48.8%; in the assay with WM1745, 3.74%; in the assay on WM3526, 75.9%; with WM3619, 67.4%; in the assay with WM451Lu, 82.1%.
As for `O=C(/C=C/c1cccnc1)NCCCCC1CCN(C(=O)c2ccccc2)CC1` + CS(=O)(=O)CCNCc1ccc(-c2ccc3ncnc(Nc4ccc(OCc5cccc(F)c5)c(Cl)c4)c3c2)o1 [lapatinib] (first compound 0.01 µM, partner dose 0.8 µM), the cell count in the assay with WM115 was 93.7%; in the assay on WM1716, 105%; with WM1745, 125%; in the assay with WM3526, 89.3%; in the assay with WM3619, 89%; in the assay on WM451Lu it was 75.1%.
`CC1(C)CCC(c2ccc(Cl)cc2)=C(CN2CCN(c3ccc(C(=O)NS(=O)(=O)c4ccc(N[C@H](CCN5CCOCC5)CSc5ccccc5)c(S(=O)(=O)C(F)(F)F)c4)cc3)CC2)C1` + C=CCn1c(=O)c2cnc(Nc3ccc(N4CCN(C)CC4)cc3)nc2n1-c1cccc(C(C)(C)O)n1 [MK1775] (first compound 0.4 µM, partner dose 0.02 µM): the cell count with WM115 came to 73.7%; with WM1716 it was 50%; with WM1745, 5.8%; with WM3526, 61.1%; with WM3619, 37.7%; with WM451Lu it was 88.9%.
As for `O=C(/C=C/c1cccnc1)NCCCCC1CCN(C(=O)c2ccccc2)CC1` + COc1ccc2c(c1)CCC1C2CCC2(C)C(NCCCCCCN3C(=O)C=CC3=O)CCC12 [U73122] (first compound 0.01 µM, partner dose 0.4 µM), the cell count is 90.6% in the assay with WM115; 94.6% in the assay on WM1716; 98.6% with WM1745; 91.5% with WM3526; 87.3% in the assay on WM3619; 94.4% with WM451Lu.
Regarding `Cc1ccc(Nc2nccc(N(C)c3ccc4c(C)n(C)nc4c3)n2)cc1S(N)(=O)=O` [Pazopanib] + O=C(CCCCCCC(=O)Nc1ccccc1)NO [vorinostat] (first compound 0.4 µM, partner dose 0.08 µM), the cell count with WM115 was 85.4%; in the assay on WM1716, 90.4%; in the assay with WM1745, 88.8%; in the assay with WM3526, 91.7%; in the assay with WM3619, 103%; in the assay on WM451Lu it was 81.4%.
On to `Cc1ccc(Nc2nccc(N(C)c3ccc4c(C)n(C)nc4c3)n2)cc1S(N)(=O)=O` [Pazopanib] + C=CCNC1=C2C[C@@H](C)C[C@H](OC)[C@H](O)[C@@H](C)/C=C(\C)[C@H](OC(N)=O)[C@@H](OC)/C=C\C=C(/C)C(=O)NC(=CC1=O)C2=O [Tanespimycin] (first compound 0.4 µM, partner dose 0.002 µM), for which the cell count amounted to 79.6% in the assay on WM115; 86.9% with WM1716; 89.1% with WM1745; 88.3% in the assay with WM3526; 70.8% with WM3619; 86.5% in the assay on WM451Lu.
As to `CC1(C)CCC(c2ccc(Cl)cc2)=C(CN2CCN(c3ccc(C(=O)NS(=O)(=O)c4ccc(N[C@H](CCN5CCOCC5)CSc5ccccc5)c(S(=O)(=O)C(F)(F)F)c4)cc3)CC2)C1` + O=C(CCCCCCC(=O)Nc1ccccc1)NO [vorinostat] (first compound 0.4 µM, partner dose 0.08 µM), the cell count came to 102% in the assay on WM115; 85.6% in the assay on WM1716; 11.9% with WM1745; 92.2% in the assay with WM3526; 120% with WM3619; 74.8% with WM451Lu.
With `O=C(/C=C/c1cccnc1)NCCCCC1CCN(C(=O)c2ccccc2)CC1` + Cn1c(=O)n(-c2ccc(C(C)(C)C#N)cc2)c2c3cc(-c4cnc5ccccc5c4)ccc3ncc21 [NVP-BEZ235] (first compound 0.01 µM, partner dose 0.004 µM), the cell count was found to be 93.1% with WM115; 93% with WM1716; 85.3% with WM1745; 110% in the assay on WM3526; 93.3% in the assay on WM3619; 97.9% with WM451Lu.
Turning to `CC1(C)CCC(c2ccc(Cl)cc2)=C(CN2CCN(c3ccc(C(=O)NS(=O)(=O)c4ccc(N[C@H](CCN5CCOCC5)CSc5ccccc5)c(S(=O)(=O)C(F)(F)F)c4)cc3)CC2)C1` + C[C@@H]1CCN(C(=O)CC#N)C[C@@H]1N(C)c1ncnc2[nH]ccc12 [CP690550] (first compound 0.4 µM, partner dose 1 µM), the cell count with WM115 turned out to be 89.4%; in the assay on WM1716 it was 64.3%; in the assay on WM1745, 16.2%; with WM3526 it was 73.3%; in the assay with WM3619 it was 71.1%; in the assay on WM451Lu, 81.7%.
Regarding `Cc1ccc(Nc2nccc(N(C)c3ccc4c(C)n(C)nc4c3)n2)cc1S(N)(=O)=O` [Pazopanib] + C[C@]1(c2nc3c(C(N)=O)cccc3[nH]2)CCCN1 [Veliparib] (first compound 0.4 µM, partner dose 1.4 µM), the cell count in the assay on WM115 was determined as 94.2%; in the assay on WM1716, 74.7%; in the assay on WM1745 it was 104%; in the assay on WM3526 it was 77.5%; with WM3619 it was 111%; in the assay on WM451Lu it was 89.9%.
On to `Cc1ccc(Nc2nccc(N(C)c3ccc4c(C)n(C)nc4c3)n2)cc1S(N)(=O)=O` [Pazopanib] + COc1cc(Nc2ncc(F)c(Nc3ccc4c(n3)NC(=O)C(C)(C)O4)n2)cc(OC)c1OC [Tamatinib] (first compound 0.4 µM, partner dose 0.4 µM), for which the cell count in the assay on WM115 is 80.8%; in the assay on WM1716, 92.7%; with WM1745, 91.6%; in the assay with WM3526, 85.3%; in the assay on WM3619 it was 90.1%; with WM451Lu, 116%.
`CC1(C)CCC(c2ccc(Cl)cc2)=C(CN2CCN(c3ccc(C(=O)NS(=O)(=O)c4ccc(N[C@H](CCN5CCOCC5)CSc5ccccc5)c(S(=O)(=O)C(F)(F)F)c4)cc3)CC2)C1` + Cn1c(Nc2ccc(C(F)(F)F)cc2)nc2cc(Oc3ccnc(-c4ncc(C(F)(F)F)[nH]4)c3)ccc21 [CHIR265] (first compound 0.4 µM, partner dose 0.08 µM): the cell count with WM115 is 22.7%; in the assay on WM1716, 54.4%; in the assay with WM1745, 4.64%; with WM3526, 41.2%; in the assay on WM3619, 39.6%; in the assay on WM451Lu, 71.2%.
Take `Cc1ccc(Nc2nccc(N(C)c3ccc4c(C)n(C)nc4c3)n2)cc1S(N)(=O)=O` [Pazopanib] + CCN(CC)CCNC(=O)c1c(C)[nH]c(/C=C2\C(=O)Nc3ccc(F)cc32)c1C [sunitinib] (first compound 0.4 µM, partner dose 0.4 µM): the cell count in the assay on WM115 turned out to be 102%; in the assay with WM1716, 125%; in the assay on WM1745, 101%; with WM3526 it was 85.6%; with WM3619 it was 97.2%; in the assay with WM451Lu it was 95.6%.
Regarding `O=C(/C=C/c1cccnc1)NCCCCC1CCN(C(=O)c2ccccc2)CC1` + CCCCCCCCCCCC1=C(O)C(=O)C=C(O)C1=O [Embelin] (first compound 0.01 µM, partner dose 1.2 µM), the cell count in the assay with WM115 is 76.7%; with WM1716, 94.7%; in the assay on WM1745 it was 115%; with WM3526, 108%; in the assay with WM3619, 88.7%; in the assay with WM451Lu, 102%.
Turning to `CC1(C)CCC(c2ccc(Cl)cc2)=C(CN2CCN(c3ccc(C(=O)NS(=O)(=O)c4ccc(N[C@H](CCN5CCOCC5)CSc5ccccc5)c(S(=O)(=O)C(F)(F)F)c4)cc3)CC2)C1` + C[C@@H](Oc1cc(-c2cnn(C3CCNCC3)c2)cnc1N)c1c(Cl)ccc(F)c1Cl [Crizotinib] (first compound 0.4 µM, partner dose 0.2 µM), the cell count in the assay with WM115 worked out at 88.3%; in the assay with WM1716 it was 91.4%; in the assay on WM1745, 9.38%; in the assay with WM3526 it was 77.6%; in the assay on WM3619 it was 104%; in the assay with WM451Lu, 89.9%.
As to `O=C(/C=C/c1cccnc1)NCCCCC1CCN(C(=O)c2ccccc2)CC1` + C[C@]1(O)C[C@@H](c2nc(-c3ccc4ccc(-c5ccccc5)nc4c3)c3c(N)nccn32)C1 [OSI906] (first compound 0.01 µM, partner dose 0.4 µM), the cell count in the assay with WM115 came to 103%; in the assay on WM1716 it was 110%; in the assay on WM1745 it was 89.2%; in the assay with WM3526, 78.5%; in the assay with WM3619, 75.7%; in the assay on WM451Lu, 114%.
`Cc1ccc(Nc2nccc(N(C)c3ccc4c(C)n(C)nc4c3)n2)cc1S(N)(=O)=O` [Pazopanib] + CC(C)C[C@H](NC(=O)[C@H](Cc1ccccc1)NC(=O)c1cnccn1)B(O)O [Bortezomib] (first compound 0.4 µM, partner dose 0.001 µM): the cell count was 96.4% in the assay on WM115; 85.3% with WM1716; 89.5% in the assay on WM1745; 76.4% in the assay with WM3526; 86.3% with WM3619; 114% in the assay with WM451Lu.
`O=C(/C=C/c1cccnc1)NCCCCC1CCN(C(=O)c2ccccc2)CC1` + C[C@@H](N)c1ccc(C(=O)Nc2ccnc3[nH]ccc23)cc1 [RKI983] (first compound 0.01 µM, partner dose 0.4 µM): the cell count in the assay on WM115 worked out at 107%; in the assay on WM1716, 64.4%; with WM1745, 90%; in the assay with WM3526, 119%; in the assay on WM3619 it was 74%; in the assay on WM451Lu it was 85.5%.
As to `CC1(C)CCC(c2ccc(Cl)cc2)=C(CN2CCN(c3ccc(C(=O)NS(=O)(=O)c4ccc(N[C@H](CCN5CCOCC5)CSc5ccccc5)c(S(=O)(=O)C(F)(F)F)c4)cc3)CC2)C1` + Cc1nc(Nc2ncc(C(=O)Nc3c(C)cccc3Cl)s2)cc(N2CCN(CCO)CC2)n1 [dasatanib] (first compound 0.4 µM, partner dose 0.004 µM), the cell count was 72.4% in the assay with WM115; 66.2% with WM1716; 4.6% in the assay with WM1745; 108% in the assay with WM3526; 70.5% in the assay on WM3619; 69.3% with WM451Lu.
For `CC1(C)CCC(c2ccc(Cl)cc2)=C(CN2CCN(c3ccc(C(=O)NS(=O)(=O)c4ccc(N[C@H](CCN5CCOCC5)CSc5ccccc5)c(S(=O)(=O)C(F)(F)F)c4)cc3)CC2)C1` + CC1(C)NC(=O)N(c2ccc([N+](=O)[O-])c(C(F)(F)F)c2)C1=O [nilutamide] (first compound 0.4 µM, partner dose 1 µM), the cell count in the assay on WM115 is 82.3%; with WM1716 it was 59.8%; in the assay with WM1745, 28.1%; in the assay with WM3526, 85.2%; with WM3619, 89.1%; with WM451Lu, 99.5%.
